According to PubChem BioAssay AID1476 (National Center for Advancing Translational Sciences (NCATS), 2009):
Out of some 200,000 compounds screened, about 4,500 (2.2%) were called active. The shares of active, inactive and inconclusive entries below differ from those in the screen. The call rests on the fitted dose curve; in most records, active means well fitted inhibition curve with a large enough effect; inconclusive means small, poorly fitted or top-dose-only effect, or effect the other way; inactive means flat fitted curve, though single readings scatter. Potencies of inconclusive entries are doubtful fits and often do not repeat.

What follows are compounds tested against Cruzipain (Trypanosoma cruzi) (UniProt P25779) (assay: qHTS Assay for Promiscuous and Specific Inhibitors of Cruzain (without detergent)). Conditions: purified cruzain, Z-FR-AMC fluorescence, no detergent.
Procedure, shortened: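 Purified cruzain at 1.5 nM, pre-incubated 15 min with compound at room temperature in 100 mM sodium acetate pH 5.5, 5 mM DTT, 0.00005% Triton X-100. Reaction started with 2 uM Z-FR-AMC; AMC fluorescence increase over 60 s gives rate.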
Further: nearly all actives have a fitted effect of over 40% in size.
Potency means the concentration at half of the fitted maximal effect; tags describe the fitted curve by direction and shape.
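Wherever max response, negative = inhibition is given: plate controls were enzyme without inhibitor for no effect and buffer without enzyme for full effect.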

Sequence of UniProt P25779 (P25779 whole entry, looked up): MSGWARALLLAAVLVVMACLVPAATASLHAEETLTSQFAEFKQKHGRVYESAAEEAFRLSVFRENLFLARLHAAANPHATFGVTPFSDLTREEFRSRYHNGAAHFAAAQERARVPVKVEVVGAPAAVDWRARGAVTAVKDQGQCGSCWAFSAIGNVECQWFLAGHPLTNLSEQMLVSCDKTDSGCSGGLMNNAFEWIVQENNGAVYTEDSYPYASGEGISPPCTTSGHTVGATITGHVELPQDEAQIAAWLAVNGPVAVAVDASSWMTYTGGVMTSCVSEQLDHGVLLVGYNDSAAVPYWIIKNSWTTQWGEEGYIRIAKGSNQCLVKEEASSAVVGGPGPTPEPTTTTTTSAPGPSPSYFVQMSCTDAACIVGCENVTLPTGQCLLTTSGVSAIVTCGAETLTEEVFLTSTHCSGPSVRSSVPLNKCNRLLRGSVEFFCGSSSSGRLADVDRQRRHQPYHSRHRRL

SMILES | Potency | max response, negative = inhibition
CCOC(=O)c1c(NC(=O)CS(=O)(=O)c2ccc(C)cc2)sc2c1CCC(C)C2 (configuration not stated) | inconclusive: 31.6 µM [inhibitor, single point] | –
CCC(C)NC(=O)Cn1c(=O)n(CC2CCC(C(=O)NC)CC2)c(=O)c2sccc21 (configuration not stated) | – | inactive: -10.2%
Cc1onc(-c2ccccc2)c1C(=O)NCC1CCN(C(=O)c2c(-c3ccccc3)noc2C)CC1 | inconclusive: 31.6 µM [activator, single point] | –
O=C(c1cn(CC(=O)N2CCCCC2)c2ccccc12)C1CC1 | – | inactive: 0.467%
CC(=O)C(=Nc1ccc(Cl)cc1Cl)NNc1cccc(Cl)c1 | inconclusive: 39.8 µM [inhibitor, single point] | –
COc1cc(NC(=O)c2cccc3c2C(=O)N(Cc2cccnc2)C3)cc(OC)c1OC | inconclusive: 31.6 µM [activator, single point] | –
COc1ccccc1OCC(=O)Nc1nnc2n1CCS2 | inconclusive: 0.316 µM [activator, partial curve, poor fit] | –
COc1ccc(-n2c(=O)c(-c3cccs3)nc3cnc(Nc4ccccc4)nc32)cc1 | – | inactive: 4.69%
Cc1cc(C)c(S(=O)(=O)N2CCN(c3ccc([N+](=O)[O-])c(NCc4ccco4)c3)CC2)c(C)c1 | active: 6.31 µM | –
Clc1ccc2c(NC3CCC(N4CCCCC4)CC3)ccnc2c1 (configuration not stated) | – | inactive: -8.88%
CCOc1ccccc1-n1c(CNc2ccc(F)cc2)nnc1SCC(=O)NCc1ccco1 | inconclusive: 31.6 µM [activator, partial curve] | –
COc1ccc2c(C)c(Cl)c(=O)oc2c1 | inconclusive: 39.8 µM [activator, single point] | –
Cc1cccc(NC(=O)Nc2ccc(Oc3c(F)c(F)c(F)c(F)c3F)cc2)c1 | inconclusive: 25.1 µM [inhibitor, single point] | –
CCC(C)C1NC(=O)C(CCNCS(=O)(=O)O)NC(=O)C(NC(=O)C(CCNCS(=O)(=O)O)NC(=O)C(NC(=O)C(CCNCS(=O)(=O)O)NC(=O)CCCCC(C)C)C(C)O)CCNC(=O)C(C(C)O)NC(=O)C(CCNCS(=O)(=O)O)NC(=O)C(CCNCS(=O)(=O)O)NC(=O)C(C(C)CC)NC1=O (configuration not stated) | inconclusive: 12.6 µM [activator, partial curve] | –
Cn1cc(/C=C2/SC(=O)N(c3ccccc3)C2=O)c2ccccc21 | inconclusive: 31.6 µM [inhibitor, single point] | –
COc1ccc(/C=N\NS(=O)(=O)c2ccc(C)cc2)cc1COc1ccccc1[N+](=O)[O-] | inconclusive: 31.6 µM [inhibitor, single point] | –
Cc1ccc(S(=O)(=O)/C(C#N)=C/c2c(N3CCC(C(N)=O)CC3)nc3c(C)cccn3c2=O)cc1 | inconclusive: 39.8 µM [activator, single point] | –
CC1CCN(S(=O)(=O)c2cn(CC(=O)Nc3ccc(F)c(Cl)c3)c(=O)c3ccccc23)CC1 | – | inactive: -9.6%
CCc1cccc(CC)c1NC(=O)COC(=O)/C(C#N)=C/c1ccc(OC)cc1 | inconclusive: 39.8 µM [inhibitor, single point] | –

SMILES | Potency | max response, negative = inhibition
Cc1ccc(C(=O)c2c(C)oc3c2C(=O)C(=O)c2ccccc2-3)cc1 | inconclusive: 39.8 µM [inhibitor, single point] | –
CCOC(=O)N1CCN(C(=O)CCc2ccc(S(=O)(=O)NCCc3ccccc3)cc2)CC1 | inconclusive: 25.1 µM [activator, single point] | –
COc1cccc(C2C3=C(N=c4s/c(=C\c5ccc(O)cc5)c(=O)n42)c2ccccc2CC3)c1OC (configuration not stated) | inconclusive: 25.1 µM [inhibitor, single point] | –
Cc1cc(C2=NNC(=NC3CC3)SC2)c(C)n1Cc1ccco1 | inconclusive: 31.6 µM [inhibitor, single point] | –
COc1ccc2c(c1)CCc1sc(NC(=O)c3ccc(Cl)cc3)nc1-2 | inconclusive: 39.8 µM [inhibitor, single point] | –
Cc1cc(C)c2c(n1)sc1c(=O)[nH]c(SCc3ccccc3)nc12 | inconclusive: 7.94 µM [inhibitor, full curve, poor fit] | –
COCCNC(=O)c1c(N)n(-c2ccccc2)c2nc3ccccc3nc12 | inconclusive: 25.1 µM [activator, partial curve] | –
CC(=O)N1c2ccc(S(=O)(=O)NCC3CCC(C(=O)Nc4ccccc4C)CC3)cc2CC1C (configuration not stated) | inconclusive: 15.8 µM [activator, partial curve] | –
CCc1ccc(OCC(=O)N(Cc2ccc(C)cc2)Cc2ccco2)cc1 | – | inactive: -9.91%
Cc1nn(-c2ccc(Cl)cc2)c2sc(C(=O)N3CCN(C(=O)c4ccco4)CC3)cc12 | inconclusive: 39.8 µM [activator, single point] | –
CCOc1ccc(CC(=O)Nc2ccc3c(c2)N(C)C(=O)c2ccccc2S3)cc1OCC | inconclusive: 25.1 µM [activator, single point] | –
O=C(Nc1ncc(Cc2ccc(Cl)cc2Cl)s1)c1ccc([N+](=O)[O-])cc1 | inconclusive: 39.8 µM [inhibitor, single point] | –
C=CCn1c(SCC(=O)N2CCOCC2)nc2scc(-c3ccco3)c2c1=O | inconclusive: 31.6 µM [activator, single point] | –
CCCn1c(-c2ccc(F)cc2)nc2c(NCCCN(CC)CC)nc(C)nc21 | – | inactive: 4.65%
CSc1nc(-c2ccco2)cc(-c2ccccc2)c1C#N | inconclusive: 39.8 µM [inhibitor, single point] | –
Cc1ccc2c(C)nc(Nc3nc(CSc4nnc(C)s4)cc(=O)[nH]3)nc2c1 | inconclusive: 39.8 µM [activator, single point] | –
COc1ccc(C(C[N+](=O)[O-])c2c(-c3ccccc3)cc3ccccn23)cc1OC (configuration not stated) | inconclusive: 39.8 µM [inhibitor, single point] | –
Cc1ccc(C)c(N(C(=O)CS(=O)CC(=O)Nc2ccc3c(c2)OCO3)C(C)C(=O)NC2CCCC2)c1 (configuration not stated) | inconclusive: 39.8 µM [activator, single point] | –
